The record followed here is article PMC10290081.

In the assay the target is Homo sapiens full-length TRPV4 (hTRPV4), C-terminal FLAG-tag and 10x His-tag (human) (UniProt Q9HBA0). Briefly: cryo-EM structure; single-particle cryo-EM of TRPV4 purified in detergent (LMNG/CHS/GDN, 20 mM Tris pH 8.0, 150 mM NaCl) with copurified endogenous Rho GTPase; ligand-free, with 20 uM GSK279, with 20 uM GSK101 + 2 mM GTPgammaS, with 40 uM 4alpha-PDD + 2 mM GTPgammaS.

Take “Homo sapiens full-length TRPV4 (hTRPV4), C-terminal FLAG-tag and 10x His-tag (a stretch of the chain, no sequence given) (natural protein; other documents disagree on this pair)”: the stoichiometry N is 4 subunits.
